Assay results: the supplement of paper PMC8728848
The other results are listed elsewhere or left out.

How the values were obtained:
Experiment in all cases: glycan array binding signal (z-score within array); higher = stronger binding
Conditions in all cases: glycan notation: IUPAC condensed, linker removed
[1] = molecular target: Neu5Ac(a2-6)Gal(b1-4)GlcNAc(b1-3)Gal(b1-4)[Fuc(a1-3)]GlcNAc(b1-3)Gal(b1-4)[Fuc(a1-3)]GlcNAc
Method in brief: (§1)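 Glycan array data were curated from 3228 arrays in the Consortium for Functional Glycomics database and kept only where the protein sequence was available. Glycan names were converted to IUPAC-condensed notation, and columns mapping to the same glycan were averaged. The binding signal is a within-array Z-score, averaged across arrays of the same protein sequence at different concentrations or buffers and across linkers. Negative Z-scores can be read as non-binding.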

[2] = molecular target: Neu5Ac(a2-6)Gal(b1-4)GlcNAc(b1-3)GalNAc
Method in brief: as §1

[3] = molecular target: Neu5Ac(a2-6)Gal(b1-4)GlcNAc(b1-3)[Neu5Ac(a2-6)Gal(b1-4)GlcNAc(b1-6)]GalNAc
Method in brief: as §1

[4] = molecular target: Neu5Ac(a2-6)Gal(b1-4)GlcNAc(b1-6)GalNAc
Method in brief: as §1

[5] = molecular target: Neu5Ac(a2-6)Gal(b1-4)GlcNAc(b1-6)[Gal(b1-3)GlcNAc(b1-3)]Gal(b1-4)Glc
Method in brief: as §1

[6] = molecular target: Neu5Ac(a2-6)Gal(b1-4)GlcNAc(b1-6)[Gal(b1-3)]GalNAc
Method in brief: as §1

[7] = molecular target: Neu5Ac(a2-6)Gal(b1-4)GlcNAc6S
Method in brief: as §1

Neu5Ac(a2-6)GalNAc = molecular target: Neu5Ac(a2-6)GalNAc
Method in brief: as §1

[8] = molecular target: Neu5Ac(a2-6)GalNAc(b1-4)GlcNAc
Method in brief: as §1

[9] = molecular target: Neu5Ac(a2-6)GalNAc(b1-4)GlcNAc6S
Method in brief: as §1

[10] = molecular target: Neu5Ac(a2-6)GlcNAc(b1-4)GlcNAc
Method in brief: as §1

[11] = molecular target: Neu5Ac(a2-6)GlcNAc(b1-4)GlcNAc(b1-4)GlcNAc
Method in brief: as §1

Neu5Ac(a2-8)Neu5Ac = molecular target: Neu5Ac(a2-8)Neu5Ac
Method in brief: as §1

[12] = molecular target: Neu5Ac(a2-8)Neu5Ac(a2-3)Gal(b1-3)GalNAc(b1-4)[Neu5Ac(a2-3)]Gal(b1-4)Glc
Method in brief: as §1

[13] = molecular target: Neu5Ac(a2-8)Neu5Ac(a2-3)Gal(b1-3)GalNAc(b1-4)[Neu5Ac(a2-8)Neu5Ac(a2-3)]Gal(b1-4)Glc
Method in brief: as §1

[14] = molecular target: Neu5Ac(a2-8)Neu5Ac(a2-3)Gal(b1-4)Glc
Method in brief: as §1

[15] = molecular target: Neu5Ac(a2-8)Neu5Ac(a2-3)Gal(b1-4)GlcNAc
Method in brief: as §1

[16] = molecular target: Neu5Ac(a2-8)Neu5Ac(a2-3)[Gal(b1-3)GalNAc(b1-4)]Gal(b1-4)Glc
Method in brief: as §1

[17] = molecular target: Neu5Ac(a2-8)Neu5Ac(a2-3)[GalNAc(b1-4)]Gal(b1-4)Glc
Method in brief: as §1

[18] = molecular target: Neu5Ac(a2-8)Neu5Ac(a2-8)Neu5Ac
Method in brief: as §1

[19] = molecular target: Neu5Ac(a2-8)Neu5Ac(a2-8)Neu5Ac(a2-3)Gal(b1-4)Glc
Method in brief: as §1

[20] = molecular target: Neu5Ac(a2-8)Neu5Ac(a2-8)Neu5Ac(a2-3)[Gal(b1-3)GalNAc(b1-4)]Gal(b1-4)Glc
Method in brief: as §1

[21] = molecular target: Neu5Ac(a2-8)Neu5Ac(a2-8)Neu5Ac(a2-3)[GalNAc(b1-4)]Gal(b1-4)Glc
Method in brief: as §1

[22] = molecular target: Neu5Ac(a2-8)Neu5Ac(a2-8)Neu5Ac(a2-8)Neu5Ac(a2-3)[GalNAc(b1-4)]Gal(b1-4)Glc
Method in brief: as §1

[23] = molecular target: Neu5Ac(a2-8)Neu5Gc(a2-3)Gal(b1-4)GlcNAc
Method in brief: as §1

[24] = molecular target: Neu5Ac(b2-6)Gal(b1-4)GlcNAc
Method in brief: as §1

Neu5Ac(b2-6)GalNAc = molecular target: Neu5Ac(b2-6)GalNAc
Method in brief: as §1

[25] = molecular target: Neu5Ac9Ac(a2-3)Gal(b1-3)GlcNAc
Method in brief: as §1

[26] = molecular target: Neu5Ac9Ac(a2-3)Gal(b1-4)GlcNAc
Method in brief: as §1

[27] = molecular target: Neu5Ac9Ac(a2-6)Gal(b1-4)GlcNAc
Method in brief: as §1

[28] = molecular target: Neu5Gc(a2-3)Gal(b1-3)GlcNAc
Method in brief: as §1

[29] = molecular target: Neu5Gc(a2-3)Gal(b1-3)[Fuc(a1-4)]GlcNAc
Method in brief: as §1

Neu5Gc(a2-3)Gal(b1-4)Glc = molecular target: Neu5Gc(a2-3)Gal(b1-4)Glc
Method in brief: as §1

[30] = molecular target: Neu5Gc(a2-3)Gal(b1-4)GlcNAc
Method in brief: as §1

[31] = molecular target: Neu5Gc(a2-3)Gal(b1-4)GlcNAc(b1-3)Gal(b1-4)GlcNAc(b1-2)Man(a1-3)[Neu5Gc(a2-3)Gal(b1-4)GlcNAc(b1-3)Gal(b1-4)GlcNAc(b1-2)Man(a1-6)]Man(b1-4)GlcNAc(b1-4)GlcNAc
Method in brief: as §1

[32] = molecular target: Neu5Gc(a2-3)Gal(b1-4)[Fuc(a1-3)]GlcNAc
Method in brief: as §1

[33] = molecular target: Neu5Gc(a2-6)Gal(b1-4)GlcNAc
Method in brief: as §1

Neu5Gc(a2-6)GalNAc = molecular target: Neu5Gc(a2-6)GalNAc
Method in brief: as §1

[34] = molecular target: Neu5Gc(a2-8)Neu5Ac(a2-3)Gal(b1-4)GlcNAc
Method in brief: as §1

[35] = molecular target: Neu5Gc(a2-8)Neu5Gc(a2-3)Gal(b1-4)GlcNAc
Method in brief: as §1

[36] = molecular target: Neu5Gc(a2-8)Neu5Gc(a2-3)Gal(b1-4)GlcNAc(b1-3)Gal(b1-4)GlcNAc
Method in brief: as §1

[37] = molecular target: Neu5Gc(a2-8)Neu5Gc(a2-6)Gal(b1-4)GlcNAc
Method in brief: as §1

[38] = molecular target: Neu5Gc(b2-6)Gal(b1-4)GlcNAc
Method in brief: as §1

B1: PpFlo1 (Pichia pastoris) (protein)
chain: MGSSHHHHHHSSGLVPRGSHMQESGDGDISDSAYACDIDATRYDGFNATIYEFQPGDGRLTRDPVFMSTGYLNRTQLHSITGVTDPGFSIYTPGVPTTTLYGIPNVNWENLLLELKGYFRAEVSGDYGLSLRNIDDSAILFFGKETAFQCCNENSISNEASTDYSLFTIFRQEGDETTNLDSFTYTQYLEAGKYYPVRTFFVNIERHAVFNFTMTLPDGTELTDFHNYIYQFGALDEEQCQA
[1]
  glycan array binding signal (z-score): 0.701
[2]
  glycan array binding signal (z-score): -0.082
[3]
  glycan array binding signal (z-score): 0.261
[4]
  glycan array binding signal (z-score): -0.171
[5]
  glycan array binding signal (z-score): 0
[6]
  glycan array binding signal (z-score): -0.094
[7]
  glycan array binding signal (z-score): 2.26
Neu5Ac(a2-6)GalNAc
  glycan array binding signal (z-score): 0.072
[8]
  glycan array binding signal (z-score): -0.177
[9]
  glycan array binding signal (z-score): -0.213
[10]
  glycan array binding signal (z-score): -0.29
[11]
  glycan array binding signal (z-score): -0.209
Neu5Ac(a2-8)Neu5Ac
  glycan array binding signal (z-score): 0.146
[12]
  glycan array binding signal (z-score): -0.081
[13]
  glycan array binding signal (z-score): -0.103
[14]
  glycan array binding signal (z-score): 0.631
[15]
  glycan array binding signal (z-score): -0.504
[16]
  glycan array binding signal (z-score): -0.322
[17]
  glycan array binding signal (z-score): 0.103
[18]
  glycan array binding signal (z-score): -0.364
[19]
  glycan array binding signal (z-score): -0.016
[20]
  glycan array binding signal (z-score): 0.011
[21]
  glycan array binding signal (z-score): -0.438
[22]
  glycan array binding signal (z-score): 0.231
[23]
  glycan array binding signal (z-score): -0.499
[24]
  glycan array binding signal (z-score): 0.76
Neu5Ac(b2-6)GalNAc
  glycan array binding signal (z-score): -0.315
[25]
  glycan array binding signal (z-score): -0.059
[26]
  glycan array binding signal (z-score): -0.191
[27]
  glycan array binding signal (z-score): -0.44
[28]
  glycan array binding signal (z-score): -0.388
[29]
  glycan array binding signal (z-score): -0.403
Neu5Gc(a2-3)Gal(b1-4)Glc
  glycan array binding signal (z-score): -0.317
[30]
  glycan array binding signal (z-score): -0.192
[31]
  glycan array binding signal (z-score): 0.285
[32]
  glycan array binding signal (z-score): 0.262
[33]
  glycan array binding signal (z-score): 0
Neu5Gc(a2-6)GalNAc
  glycan array binding signal (z-score): -0.058
[34]
  glycan array binding signal (z-score): -0.196
[35]
  glycan array binding signal (z-score): -0.287
[36]
  glycan array binding signal (z-score): -0.06
[37]
  glycan array binding signal (z-score): -0.324
[38]
  glycan array binding signal (z-score): -0.354
